The target in experiment [1] is T1, VEGF-D (UniProt O43915 89-205, limits assumed).
T1 construct: Bought reagent
T1 sequence (looked up): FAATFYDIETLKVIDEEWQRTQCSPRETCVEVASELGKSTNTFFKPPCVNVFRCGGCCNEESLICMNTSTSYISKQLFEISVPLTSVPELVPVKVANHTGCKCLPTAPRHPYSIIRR
Nature of the experiment: blocking ELISA, VEGF-D to VEGFR2 (Example 13). In general terms: An ELISA detects its analyte on a solid surface through an enzyme-linked reagent.

Experiment [2] addresses T2, VEGF-B (UniProt P49765-2 22-188, limits assumed).
T2 construct: Bought reagent
T2 sequence (looked up): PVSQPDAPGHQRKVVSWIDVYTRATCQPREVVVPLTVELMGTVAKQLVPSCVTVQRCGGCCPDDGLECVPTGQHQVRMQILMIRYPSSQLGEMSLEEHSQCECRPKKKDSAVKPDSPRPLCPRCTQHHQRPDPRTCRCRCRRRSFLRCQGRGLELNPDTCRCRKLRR
The experiment is described as follows: ELISA, VEGF-B coated, anti-human Fc-HRP, OD450.

The target of experiment [3] is T1, VEGF-D. The experiment is described as follows: blocking ELISA, VEGF-D to VEGFR3 (Example 13).
The target in experiment [4] is T3, PIGF (UniProt P49763-2 19-149, limits assumed).
T3 construct: Bought reagent; also called PLGF; placental growth factor
T3 sequence (looked up): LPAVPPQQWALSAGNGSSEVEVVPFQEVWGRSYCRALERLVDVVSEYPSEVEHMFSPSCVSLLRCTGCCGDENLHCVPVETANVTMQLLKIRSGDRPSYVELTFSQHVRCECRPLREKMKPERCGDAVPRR
The experiment is described as follows: ELISA, PlGF coated, anti-human Fc-HRP, OD450.

Experiment [5] has as its target T4, VEGF-A165 (UniProt P15692-4 27-191).
T4 construct: Bought reagent
T4 sequence (looked up): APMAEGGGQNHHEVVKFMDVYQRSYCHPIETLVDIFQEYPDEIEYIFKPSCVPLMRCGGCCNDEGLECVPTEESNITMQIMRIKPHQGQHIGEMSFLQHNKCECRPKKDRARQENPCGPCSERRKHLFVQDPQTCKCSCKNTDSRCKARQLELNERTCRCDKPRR
Nature of the experiment: blocking ELISA, VEGF-A165 to VEGFR1 (Example 13).

For experiment [6], the target named is T4, VEGF-A165. Nature of the experiment: blocking ELISA, VEGF-A165 to VEGFR2 (Example 13).
The target of experiment [7] is T5, VEGF-C (UniProt P49767 112-227, limits assumed).
T5 construct: Bought reagent
T5 sequence (looked up): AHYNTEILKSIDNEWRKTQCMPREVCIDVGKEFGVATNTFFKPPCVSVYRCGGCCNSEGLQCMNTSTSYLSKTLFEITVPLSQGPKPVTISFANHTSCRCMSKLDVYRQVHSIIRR
Nature of the experiment: blocking ELISA, VEGF-C to VEGFR2 (Example 13).

For experiment [8], the target named is T3, PIGF. Nature of the experiment: ELISA, coated PIGF (Example 16).
Experiment [9] deals with T3, PIGF. The experiment is described as follows: ELISA, PlGF coated, anti-human Fc-HRP, OD450. The source holds these as a separate data set.
The target in experiment [10] is T5, VEGF-C. Nature of the experiment: blocking ELISA: His-VEGF-C premixed with sample, binding to coated VEGFR2-Fc read with anti-His-HRP. How it is done: During the blocking period, each recombinant receptor molecule was serially diluted from high to low concentrations, mixed evenly with 100 ng/well of VEGF-C or VEGF-D (both labeled with His-tag), allowing for incubation at room temperature for 30 minutes. […] The plates were washed with PBST, then anti-polyhistidine secondary antibody conjugated with horseradish peroxidase was added to allow for incubation and binding at room temperature for 1 hour. Then the plates were washed with PBST, TMB was added for color development, terminated with 5% hydrochloric acid solution, and finally, the OD values at 450 nm were read using a microplate reader.

The target of experiment [11] is T1, VEGF-D. The experiment is described as follows: blocking ELISA, VEGF D to VEGFR2 (Example 16).
The target of experiment [12] is T2, VEGF-B. Nature of the experiment: ELISA, coated VEGF-B (Example 16).
The target of experiment [13] is T4, VEGF-A165. Nature of the experiment: blocking ELISA, VEGF A165 to VEGFR1 (Example 16).
The target in experiment [14] is T2, VEGF-B. Nature of the experiment: ELISA, VEGF-B coated, anti-human Fc-HRP, OD450. The source holds these as a separate data set.
Experiment [15] addresses T4, VEGF-A165. Nature of the experiment: blocking ELISA, VEGF A165 to VEGFR2 (Example 16).
Experiment [16] deals with T1, VEGF-D. Nature of the experiment: ELISA binding to VEGF-D, OD450.
For experiment [17], the target named is T5, VEGF-C. Nature of the experiment: ELISA binding to VEGF-C, absorbance 450 nm.
The target in experiment [18] is T4, VEGF-A165. Nature of the experiment: ELISA binding to VEGF-A165, absorbance 450 nm.
In a further experiment the target is T6, PDGF-BB (UniProt P01127 82-190).
T6 construct: Bought reagent
Nature of the experiment: SPR, PDGF coupled to chip, trap in flow. The source says: (§1) Nevertheless, it was found in the preliminary detection experiments that PDGF family molecules (purchased from R&D Systems Inc.) were prone to produce non-specific binding in the chip, resulting in a pseudo-elevation in measured values, such that the detection could not be completed. Therefore, PDGF-AA, PDGF-AB, PDGF-BB and PDGF-CC molecules were separately loaded through a coupling reaction on a CM5 chip, followed by influx of the recombinant receptor molecules, thus effectively eliminating the impact of non-specific binding on affinity determination.
Background: In SPR one partner is held on a chip, and binding of the other changes the refractive index at the surface.

The next experiment addresses T7, PDGF-CC (UniProt Q9NRA1 235-345).
T7 construct: Bought reagent
The experiment is described as follows: SPR, PDGF coupled to chip, trap in flow.
Source text: as §1

For a further experiment, the target named is T8, PDGF-AA (UniProt P04085 87-211).
T8 construct: Bought reagent
The experiment is described as follows: SPR, PDGF coupled to chip, trap in flow.
Source text: as §1

A further experiment has as its target T9, PDGF-AB (UniProt P04085 87-211; P01127 82-190).
T9 construct: Bought reagent
Nature of the experiment: SPR, PDGF coupled to chip, trap in flow.
Source text: as §1

Sequence of PDGF-CC (Q9NRA1 235-345): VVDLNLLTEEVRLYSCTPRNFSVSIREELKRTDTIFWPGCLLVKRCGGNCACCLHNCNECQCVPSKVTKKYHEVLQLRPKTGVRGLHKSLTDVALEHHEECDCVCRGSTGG
Sequence of PDGF-BB (P01127 82-190): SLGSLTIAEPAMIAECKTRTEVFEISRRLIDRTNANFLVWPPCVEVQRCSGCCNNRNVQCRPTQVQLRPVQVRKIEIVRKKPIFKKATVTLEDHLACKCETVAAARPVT
Sequence of PDGF-AB (P01127 82-190, chain 2 of 2, other chains not shown): as the sequence (P01127 82-190) above

B1: LFV-N Recombinant receptor molecule (Fc fusion)
chain: SPFIASVSDQHGVVYITENKNKTVVIPCLGSISNLNVSLCARYPEKRFVPDGNRISWDSKKGFTIPSYMISYAGMVFCEAKINDESYQSIMYIVVVVGYRIYDVVLSPSHGIELSVGEKLVLNCTARTELNVGIDFNWEYPSSKHQHKKLVNRDLKTQSGSEMKKFLSTLTIDGVTRSDQGLYTCAASSGLMTKKNSTFVRVHEKGGGGSGRPFVEMYSEIPEIIHMTEGRELVIPCRVTSPNITVTLKKFPLDTLIPDGKRIIWDSRKGFIISNATYKEIGLLTCEATVNGHLYKTNYLTHRQTNTIIGPG[here human IgG1 Fc without letters]
notes: expressed in CHO cells
For the molecule B1, the EC50 (in general, the concentration giving half of the maximal effect) with VEGF-D [1] is 1.79 nM; in the experiment with VEGF-B [2], 1.53 nM; in the experiment with VEGF-D [3], 2.31 nM; with PIGF [4], 0.25 nM; with VEGF-A165 [5], 3.3 nM; in the experiment with VEGF-A165 [6] it was 1.87 nM. This molecule came in with a 50% effective concentration (EC50) with VEGF-C [7] of 27.3 nM.

B2: LFV-M Recombinant receptor molecule (Fc fusion)
chain: GRPFVEMYSEIPEIIHMTEGRELVIPCRVTSPNITVTLKKFPLDTLIPDGKRIIWDSRKGFIISNATYKEIGLLTCEATVNGHLYKTNYLTHRQTNTIIGGGGSGGSPFIASVSDQHGVVYITENKNKTVVIPCLGSISNLNVSLCARYPEKRFVPDGNRISWDSKKGFTIPSYMISYAGMVFCEAKINDESYQSIMYIVVVVGYRIYDVVLSPSHGIELSVGEKLVLNCTARTELNVGIDFNWEYPSSKHQHKKLVNRDLKTQSGSEMKKFLSTLTIDGVTRSDQGLYTCAASSGLMTKKNSTFVRVHEKGPG[here human IgG1 Fc without letters]
notes: expressed in CHO cells
On to B2, for which the EC50 stood at 0.0439 µg/mL in the experiment with PIGF [8]; 2.17 nM with VEGF-D [1]; 1.35 nM in the experiment with VEGF-B [2]; 0.365 nM in the experiment with PIGF [9]; 2.74 nM in the experiment with VEGF-D [3]; 0.47 nM with PIGF [4]. The EC50 in the experiment with VEGF-C [10] amounted to 12.8 nM; with VEGF-A165 [5] it was 3.14 nM; with VEGF-A165 [6], 1.6 nM; with VEGF-D [11], 5.62 nM; with VEGF-B [12] it was 0.182 µg/mL; with VEGF-A165 [13], 7.8 nM. The concentration giving a half-maximal response (EC50) with VEGF-B [14] is 1.51 nM; with VEGF-C [7] it was 27.6 nM; with VEGF-A165 [15], 2.65 nM.

B3: LFV-R Recombinant receptor molecule (Fc fusion)
chain: GRPFVEMYSEIPEIIHMTEGRELVIPCRVTSPNITVTLKKFPLDTLIPDGKRIIWDSRKGFIISNATYKEIGLLTCEATVNGHLYKTNYLTHRQTNTIIGGGGSGGSPFIASVSDQHGVVYITENKNKTVVIPCLGSISNLNVSLCARYPEKRFVPDGNRISWDSKKGFTIPSYMISYAGMVFCEAKINDESYQSIMYIVVVVGYRIYDVVLSPSHGIELSVGEKLVLQCTARTELNVGIDFNWEYPSSKHQHKKLVNRDLKTQSGSEMKKFLSTLTIDGVTRSDQGLYTCAASSGLMTKKNSTFVRVHEKGPG[here human IgG1 Fc without letters]
Take B3: the EC50 with PIGF [8] is 0.032 µg/mL; in the experiment with VEGF-D [16] it was 11.9 nM; with PIGF [9], 0.267 nM; with VEGF-C [10], 13.4 nM; with VEGF-C [17] it was 0.273 nM; in the experiment with VEGF-A165 [18] it was 0.065 nM. The EC50 with VEGF-D [11] is 4.93 nM; with VEGF-B [12], 0.126 µg/mL; with VEGF-A165 [13], 6.97 nM; with VEGF-B [14] it was 1.05 nM; with VEGF-A165 [15], 1.9 nM. In addition, the Kd – broadly, the constant that tells how readily two partners part at equilibrium – with PDGF-BB stood at 4.34 nM; in the experiment with PDGF-CC it was 90.2 nM; in the experiment with PDGF-AA it was 506 nM; with PDGF-AB, 91.7 nM. The koff (commonly the rate constant with which the complex falls apart) in the experiment with PDGF-BB stood at 0.000222 s⁻¹; with PDGF-CC, 0.000847 s⁻¹; in the experiment with PDGF-AA it was 0.00111 s⁻¹; with PDGF-AB, 0.00144 s⁻¹. Further, the kon (as a rule, a measure of how fast the partners come together) with PDGF-BB was found to be 51200 M⁻¹ s⁻¹; with PDGF-CC, 9380 M⁻¹ s⁻¹; with PDGF-AA, 2190 M⁻¹ s⁻¹; with PDGF-AB it was 15700 M⁻¹ s⁻¹.

Source of the values: US20250002557A1 (SUZHOU LIGHT FERRY BIOMED, published 2025).
